{"source": "PubChem BioAssay AID504832", "about": "(National Center for Advancing Translational Sciences (NCATS), 2011)", "note": "About 18,000 (5.8%) of roughly 310,000 compounds were called active. Inconclusive results, whose numbers are uncertain, are shown with a selection of clear calls. Calls come from the whole dose curve; as a rule, active = well fitted inhibition curve with a large enough effect; inconclusive = small, poorly fitted or top-dose-only effect, or another doubt; inactive = no such curve, though single readings can be large or run the other way. No potency is given beside an inconclusive call; the fits are too rough. % is set by controls: 0 for no effect and ±100 for the full control effect; potency is the fitted concentration of half-maximal effect; tags give direction and shape of the fitted curve."}
{"test": "Primary qHTS for delayed death inhibitors of the malarial parasite plastid, 48 hour incubation", "conditions": "P. falciparum luciferase growth in erythrocytes; series mostly up to 28.7 µM; activity change, negative = inhibition: at the top concentration", "summary_of_the_method": "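Luciferase-expressing parasites in RBCs, 2% Hct / 0.1% parasitemia final; RPMI 1640 + 0.5% Albumax; 37 C, 5% CO2, one generation; luminescence read-out, lower signal = inhibition.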"}
{"smiles": "Cc1cc(=O)[nH]c2ccccc12", "activity change, negative = inhibition": "inactive: 20.1%"}
{"smiles": "C/C(=N\\N=C1\\NC(=O)C(Cc2ccccc2)S1)c1ccccc1", "note": "(centres undefined)", "Potency": "inconclusive [inhibitor, single point]"}
{"smiles": "Cc1cc(C)cc(NC(=O)CSc2ccc(-c3ccco3)nn2)c1", "activity change, negative = inhibition": "inactive: 15%"}
{"smiles": "S=C(Nc1ccccc1)N1N=C(c2cccs2)CC1c1cccs1", "note": "(centres undefined)", "Potency": "inconclusive [inhibitor, single point]"}
{"smiles": "CCOc1cc(C2NC(=O)NC(C)=C2C(=O)OCC2CCCCC2)ccc1O", "note": "(centres undefined)", "Potency": "inconclusive [inhibitor, full curve]"}
{"smiles": "CCN(CC)CCCNC(=O)CSc1nc2c(c(C(F)(F)F)n1)CCc1ccccc1-2", "Potency": "inconclusive [inhibitor, single point]"}
{"smiles": "COc1ccc(S(=O)(=O)N2CCCC2)c2ccccc12", "Potency": "inconclusive [inhibitor, partial curve, poor fit]"}
{"smiles": "Cc1nn(C(C)C(=O)Nc2ccc3c(c2)OCO3)c(C)c1[N+](=O)[O-]", "note": "(centres undefined)", "Potency": "inconclusive [inhibitor, partial curve, poor fit]"}
{"smiles": "COc1ccc2sc(-c3ccccc3OC)c(C#CC(C)(C)O)c2c1", "Potency": "inconclusive [inhibitor, single point]"}
{"smiles": "CCOC(=O)c1sc(NC(C)=O)nc1C", "activity change, negative = inhibition": "inactive: -5.57%"}
{"smiles": "Cc1ccc(NC(=O)c2oc3ccc(S(=O)(=O)N4CCOCC4)cc3c2C)cc1C", "Potency": "inconclusive [inhibitor, partial curve]"}
{"smiles": "CCC1(C)Cc2c(sc3nnn(Cc4ccccc4Cl)c(=O)c23)CO1", "note": "(centres undefined)", "Potency": "inconclusive [inhibitor, partial curve, poor fit]"}
{"smiles": "Cn1c(-c2ccc3c(c2)OCO3)cnc1NCc1ccccc1", "activity change, negative = inhibition": "inactive: 15%"}
{"smiles": "Cc1ccc(N2CCN(C(=O)c3cccs3)CC2)c(C)c1", "Potency": "inconclusive [inhibitor, single point]"}
{"smiles": "Cc1nc2c(c3c1[nH]c1ccccc13)C(O)CC(C)(C)C2", "note": "(centres undefined)", "Potency": "inconclusive [inhibitor, partial curve]"}
{"smiles": "O=C(NCc1cccnc1)c1ccc(COc2cccc3ccccc23)o1", "Potency": "inconclusive [inhibitor, single point]"}
{"smiles": "O=C(CSc1nnc(CNc2ccc(F)cc2)o1)c1ccccc1", "Potency": "inconclusive [inhibitor, single point]"}
{"smiles": "CC(=O)Nc1ccc2nc(SCC(=O)O)sc2c1", "activity change, negative = inhibition": "inactive: 22.2%"}
{"smiles": "CCNc1nc(NCC)n2c(SC(C)C(=O)c3ccc(C)cc3)nnc2n1", "note": "(centres undefined)", "Potency": "inconclusive [inhibitor, partial curve, poor fit]"}
{"smiles": "CCN(CC)CCNc1ccnc2cc(Cl)ccc12", "Potency": "active: 0.0738 µM"}
{"smiles": "CCN(CC)C(=O)Cn1c(=O)c2ccccc2n2c(=S)sc(-c3cccc(C)c3)c12", "Potency": "inconclusive [inhibitor, full curve]"}
{"smiles": "Cc1cc(/C=C2\\C(=N)N3N=C(c4ccco4)SC3=NC2=O)c(C)n1Cc1ccccc1", "Potency": "inconclusive [inhibitor, single point]"}
{"smiles": "CC(=O)Nc1ccc(S(=O)(=O)Nc2ccccc2N2CCOCC2)cc1", "activity change, negative = inhibition": "inactive: -7.72%"}
{"smiles": "COc1ccc(/C=N/OCC(=O)NC(c2ccccc2)c2ccccc2)cc1OC", "Potency": "active: 9.28 µM"}
{"smiles": "Cc1cc(C)n(-c2nc3c(c(=O)[nH]c(=O)n3C)n2Cc2cccc(Br)c2)n1", "Potency": "inconclusive [inhibitor, single point]"}
{"smiles": "O=C(O)c1ccc(CSc2nnc(-c3cccnc3)n2-c2ccc(Br)cc2)cc1", "activity change, negative = inhibition": "inactive: -7.18%"}
{"smiles": "Nc1c(C(=O)Nc2cccc(F)c2)nnn1-c1cccc(C(F)(F)F)c1", "activity change, negative = inhibition": "inactive: 156%"}
{"smiles": "CCN(CC)S(=O)(=O)c1ccc(C)c(NCC(=O)Nc2ccc(C#N)c(Cl)c2)c1", "Potency": "inconclusive [inhibitor, partial curve]"}
{"smiles": "O=C(NCc1ccco1)c1ccc(Cl)c(S(=O)(=O)N2CCCC2)c1", "Potency": "active: 9.28 µM"}
{"smiles": "CC(Sc1nc2ccccc2c(=O)n1C)C(=O)NC1CCCCC1C", "note": "(centres undefined)", "Potency": "inconclusive [inhibitor, partial curve, poor fit]"}
{"smiles": "COC(=O)c1sccc1S(=O)(=O)Nc1ccc(N2CCCCC2)cc1", "Potency": "inconclusive [inhibitor, single point]"}
{"smiles": "CCCCCCOc1ccc(N2C(=O)CC(SC(=NCC)NCC)C2=O)cc1", "note": "(centres undefined)", "activity change, negative = inhibition": "inactive: -3.46%"}
{"smiles": "O=C(COc1ccccc1F)Nc1ccc(N2CCOCC2)cc1N1CCOCC1", "Potency": "inconclusive [inhibitor, partial curve]"}
{"smiles": "N#Cc1ccc(/C=C2\\CCn3c2nc2cc(C(=O)O)ccc2c3=O)cc1", "Potency": "inconclusive [inhibitor, full curve, poor fit]"}
{"smiles": "O=C(N/N=C/c1ccc2c(c1)OCO2)c1ccc(Br)o1", "activity change, negative = inhibition": "inactive: 214%"}
{"smiles": "CCC(=O)N1CCN(c2ccc(NC(=O)c3cc4ccccc4o3)cc2)CC1", "Potency": "inconclusive [inhibitor, single point]"}
{"smiles": "CCc1nn2c(=O)cc(N3CCN(c4cc(C)nc5ccccc45)CC3)nc2s1", "Potency": "inconclusive [inhibitor, partial curve, poor fit]"}
{"smiles": "Cc1cccc(-n2c(=S)[nH]c3nc4c(cc3c2=O)COC(C)(C)C4)c1", "Potency": "inconclusive [inhibitor, single point]"}
{"smiles": "Cc1ccc(S(=O)(=O)C2(C(=O)Nc3cccc(F)c3)CC2)cc1", "activity change, negative = inhibition": "inactive: 4.79%"}
{"smiles": "COc1ccc(NC(=O)COc2ccc(N(C)S(=O)(=O)c3ccc(Cl)cc3)cc2)cc1OC", "Potency": "inconclusive [inhibitor, single point]"}
{"smiles": "O=S(=O)([N-]c1nc2ccccc2nc1-n1cc[n+](Cc2ccccc2)c1)c1ccc(Br)cc1", "Potency": "inconclusive [inhibitor, single point]"}
{"smiles": "C/C(=N\\O)c1cccc(Br)c1", "Potency": "inconclusive [inhibitor, partial curve, poor fit]"}
{"smiles": "CN(C)CC(C)(C)CNC(=S)Nc1ccc(S(=O)(=O)N2CCOCC2)cc1", "Potency": "inconclusive [inhibitor, partial curve, poor fit]"}
{"smiles": "COc1ccc(N2CS(=O)CC2=O)cc1", "note": "(centres undefined)", "activity change, negative = inhibition": "inactive: 8.13%"}
{"smiles": "CN(C(=O)c1cccc(Br)c1)C1CCS(=O)(=O)C1", "note": "(centres undefined)", "activity change, negative = inhibition": "inactive: 11.1%"}
{"smiles": "O=C(CSc1nc2ccccc2c(=O)n1-c1ccc(Cl)cc1)N/N=C/C=C/c1ccccc1[N+](=O)[O-]", "Potency": "inconclusive [inhibitor, single point]"}
{"smiles": "O=C(NCc1ccco1)C(c1cccs1)N(C(=O)C1COc2ccccc2O1)c1cccc(O)c1", "note": "(centres undefined)", "Potency": "active: 10.4 µM"}
{"smiles": "CCOC(=O)c1c(C)[nH]c(C(=O)CSc2nnc(CC(C)c3ccccc3)o2)c1C", "note": "(centres undefined)", "Potency": "inconclusive [inhibitor, partial curve, poor fit]"}
{"smiles": "CCC(C)c1ccccc1N1CC(C(=O)Nc2ccc(C)c(S(=O)(=O)N3CCOCC3)c2)CC1=O", "note": "(centres undefined)", "Potency": "active: 13.1 µM"}
{"smiles": "O=C(Nc1ccc(Br)cc1)c1cccn1-c1ncc(C(F)(F)F)cc1Cl", "Potency": "inconclusive [inhibitor, single point]"}
{"smiles": "C[C@@H](CN1C(=O)C(=O)NC[C@@H]1C)NC(=O)CC12CC3CC(CC(C3)C1)C2", "activity change, negative = inhibition": "inactive: 23.1%"}
{"smiles": "CCOc1ccc(C(=O)C[n+]2ccccc2C)cc1", "Potency": "inconclusive [inhibitor, single point]"}
{"smiles": "COc1ccc(N(C)S(=O)(=O)c2cccc(C(=O)NCC(c3ccco3)N3CCCC3)c2)cc1", "note": "(centres undefined)", "Potency": "active: 9.28 µM"}
{"smiles": "Cc1cc(C)nc(SCc2nnc(SCc3ccc([N+](=O)[O-])cc3)n2Cc2ccco2)n1", "Potency": "inconclusive [inhibitor, partial curve]"}
{"smiles": "COc1ccc(C(CC(=O)NCc2ccco2)c2ccc(F)cc2)cc1", "note": "(centres undefined)", "Potency": "inconclusive [inhibitor, full curve, poor fit]"}
{"smiles": "COc1ccc(C(=O)N/N=C(\\C)Cn2nc([N+](=O)[O-])cc2C)cc1", "activity change, negative = inhibition": "inactive: 4.81%"}
{"smiles": "O=C(CCC(=O)N/N=C/c1cc(Cl)cc(Cl)c1O)NCc1ccccc1", "activity change, negative = inhibition": "inactive: 24.2%"}
{"smiles": "CN(C)Cc1nc2ccccc2c(=O)n1Cc1nc(-c2cccc([N+](=O)[O-])c2)cs1", "Potency": "inconclusive [inhibitor, full curve]"}
{"smiles": "COc1cccc(C2c3c(C)nn(-c4ccc([N+](=O)[O-])cc4)c3N=C3C(=O)Nc4ccccc4N32)c1", "note": "(centres undefined)", "Potency": "inconclusive [inhibitor, partial curve, poor fit]"}
{"smiles": "NC(=O)c1cc(Br)cc(C2CCCCC2)c1O", "Potency": "inconclusive [inhibitor, full curve, poor fit]"}
{"smiles": "COc1ccccc1-c1nn(-c2ccccc2)cc1C(=O)NCC(c1ccco1)N1CCCC1", "note": "(centres undefined)", "Potency": "inconclusive [inhibitor, partial curve]"}
{"smiles": "Cc1cnc(CNC(=O)CC2C(=O)NCCN2Cc2ccccc2C(F)(F)F)cn1", "note": "(centres undefined)", "activity change, negative = inhibition": "inactive: -1.5%"}
{"smiles": "Cc1cc(C)c(S(=O)(=O)N2CCN(C(=O)c3cc4ccccc4o3)CC2)c(C)c1", "Potency": "inconclusive [inhibitor, full curve, poor fit]"}
{"smiles": "NCC(c1ccccc1)(c1ccccc1)c1ccccc1", "Potency": "inconclusive [inhibitor, single point]"}
{"smiles": "N#CCCN1CCN(C(=S)c2ccc(-c3cccc(Cl)c3)o2)CC1", "activity change, negative = inhibition": "inactive: -2.25%"}
{"smiles": "Cc1cc(NC(=O)CSc2nc(=O)n(CCCN(C)C)c3c2CCCC3)no1", "Potency": "inconclusive [inhibitor, single point]"}
{"smiles": "C=CCn1c(SCC(=O)NC)nc2sc3c(c2c1=O)CCC3", "Potency": "inconclusive [inhibitor, partial curve, poor fit]"}
{"smiles": "Clc1cccc(Cl)c1/C=C/c1ccn[nH]1", "activity change, negative = inhibition": "inactive: 8.94%"}
{"smiles": "CC(Sc1ccc(Cl)cc1)C(=O)Nc1ccc2c(c1)OCO2", "note": "(centres undefined)", "Potency": "inconclusive [inhibitor, single point]"}
